Test results as given in a compilation of properties of binary mixtures (doi:10.1021/acs.jpcb.6b10562).
Some of these densities may be calculated back from excess volumes.

Experiment: xn = mol fraction of the nth substance listed
Details: 293.15 K, 101 kPa

In the case of `C[N+](C)(C)CCO.O=S(=O)([N-]S(=O)(=O)C(F)(F)F)C(F)(F)F` + O, the mass density (x1 = 0.0838) is reported as 1199.8 kg/m3, the mass density (x1 = 0.154) is reported as 1371.4 kg/m3 and the mass density (x1 = 0.28) is reported as 1449.2 kg/m3. It also gave a mass density (x1 = 0.3358) of 1467 kg/m3, a mass density (x1 = 0.4775) of 1490.4 kg/m3 and a mass density (x1 = 0.5158) of 1493 kg/m3. It also gave a mass density (x1 = 0.6466) of 1504.7 kg/m3, a mass density (x1 = 0.7847) of 1513.3 kg/m3 and a mass density (x1 = 0.8164) of 1519.2 kg/m3. The mass density (x1 = 1) was 1528.4 kg/m3.
